Laboratory results as given in PubChem BioAssay AID903 (National Center for Advancing Translational Sciences (NCATS), 2007).
About 340 (0.62%) of roughly 55,000 compounds were called active. The shares of active, inactive and inconclusive entries below differ from those in the screen. Calls follow the shape of the dose curve; as a rule, active = well fitted cell-killing curve with a large enough effect; inconclusive = small, poorly fitted or top-dose-only effect; inactive = no such curve, though single readings can be large or run the other way. Potencies beside an inconclusive call are fits to weak or partial responses and may not hold up.

assay: qHTS Screen for Compounds that Selectively Target Cancer Cells with p53 Mutations: Cytotoxicity of p53 Null Cells at the Permissive Temperature; settings: H1299-neo p53 null cells, ATP luminescence, 24 h, 32C; series mostly up to 46.1 µM; activity change, negative = cytotoxicity: at the top concentration; also: nearly all actives have a fitted effect of over 55% in size;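 as to activity change, negative = cytotoxicity: 0% = DMSO only and -100% = full killing by 100 µM tamoxifen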
How it was run: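 Cells lacking p53 (H1299-neo) are plated at 600 per well and allowed to settle overnight at 37C. Test compounds (up to 46 uM) are added and held 24 hours at 32C, then ATP is quantified by luminescence.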
Potency is read from the fitted curve at half-maximal effect; tags tell the direction and shape of the fitted curve.

Structure (SMILES) | Potency | activity change, negative = cytotoxicity
Cn1nnnc1SCCNCc1ccc(OCc2ccccc2Cl)cc1 | inconclusive: 31.6 µM [cytotoxic, single point] | 
CC(NC(=O)c1ccc(NC(=O)c2nsc3ccccc23)cc1)c1ccccc1 (configuration not stated) | inconclusive: 12.6 µM [cytotoxic, single point] | 
COc1ccc(Nc2cc(C(=O)NCCCN3CCN(c4ccc(OC)cc4)CC3)c3ccccc3n2)cc1 |  | inactive: 2.61%
Nc1ccc(N2CCN(c3ncc(C(F)(F)F)cc3Cl)CC2)c(C(F)(F)F)c1 | inconclusive: 25.1 µM [cytotoxic, single point] | 
CCn1c(C(=O)NCc2ccccc2C)cc2oc3ccccc3c21 | inconclusive: 3.55 µM [cytotoxic, partial curve] | 
Cc1ccc2nc(N3CCN(c4cccc(C(F)(F)F)c4)CC3)c3nnnn3c2c1 |  | inactive: -11%
Cc1cc2c(cc1NS(=O)(=O)c1ccc(F)cc1)n(C)c(=O)c(=O)n2C | inconclusive: 0.01 µM [cytotoxic, full curve, poor fit] | 
CCc1ccc(NC(=O)c2sc3nc(C)c(Cl)c(C)c3c2NC(=O)c2ccccc2OC)cc1 | inconclusive: 31.6 µM [cytotoxic, single point] | 
COc1ccc(/C=C/C(=O)Nc2ccc3nc4c(c(Nc5ccccc5OC)c3c2)CCCC4)cc1 |  | inactive: -8.63%
COc1ccc(C(=O)Nc2onc3c2CCCC3)cc1 | active: 7.94 µM | 
COc1ccccc1CNC(=O)Cn1c(=O)ccc2cc(S(=O)(=O)N3CCC(C)CC3)ccc21 |  | inactive: 16.8%
Cc1ccc(NC(=O)CCc2c(C)nn(-c3ccc(N4CCCCC4)nn3)c2C)cc1F | inconclusive: 10 µM [cytotoxic, partial curve] | 
Cc1ccc(NS(=O)(=O)c2c(C(=O)N3CCCCCC3)c(C)n(C)c2C)cc1F |  | inactive: 10.4%
CN(C(=O)c1cccc(Nc2ccc(-c3ccc4c(c3)OCCO4)nn2)c1)C1CCCCC1 | active: 11.2 µM | 
CN1C(=O)C2CCCCN2c2ccc(C(=O)NCc3ccccc3Br)cc21 (configuration not stated) | inconclusive: 17.8 µM [cytotoxic, partial curve] | 
COc1ccc(S(=O)(=O)NCc2cccn2Cc2cccc(C)c2)cc1OC |  | inactive: -1.13%
O=C(Nc1cc(-c2nc3ccccc3o2)ccc1Cl)c1cccc2c(Cl)cccc12 |  | inactive: 12.8%
COc1ccc(CSc2nc3ccncc3n2Cc2nc(-c3ccc(OC)c(OC)c3)oc2C)cc1 | active: 12.6 µM | 
COc1ccc2c(c1)c1c(c(=O)n(-c3cccc(Cl)c3)c(=O)n1C)n2C |  | inactive: -4.33%
CCOc1ccccc1NC(=O)c1c(NCc2ccc(C)o2)sc2c1CCCCC2 |  | inactive: 0.122%
CC1CCN(c2ccc(-c3cccc(NS(=O)(=O)c4ccc(Cl)s4)c3)nn2)CC1 | active: 6.31 µM | 
CC(CCO)Nc1nc2c(c(=O)n(C)c(=O)n2C)n1Cc1ccc(Br)cc1 (configuration not stated) |  | inactive: -3.32%
Cc1ccc(F)cc1NC(=O)CCc1c(C)nn(-c2ccc(N3CCCCC3)nn2)c1C | inconclusive: 10 µM [cytotoxic, partial curve] | 
CCCCNC(=O)c1ccc(-c2nc(CN3CCc4ccccc43)c(C)o2)cc1 |  | inactive: 3.85%

Structure (SMILES) | Potency | activity change, negative = cytotoxicity
CN(C)c1ccc(NC(=O)/C=C/c2c(Cl)cccc2Cl)cc1 | inconclusive: 14.1 µM [cytotoxic, partial curve] | 
CCc1nn(CC(=O)NCC(C)c2ccccc2)c(=O)c2cc3c(OC)cccc3n12 (configuration not stated) | inconclusive: 0.0282 µM [cytotoxic, full curve, poor fit] | 
Cc1ccc(-n2ncc3c(N4CCN(Cc5ccccc5)CC4)ncnc32)cc1C |  | inactive: -16.8%
CCCOc1ccc(C(=O)Nc2cccc(NC(=O)c3ccc(Cl)cc3Cl)c2)cc1 | inconclusive: 12.6 µM [cytotoxic, single point] | 
O=C(Nc1ccc(F)cc1)c1ncn(-c2ccccc2)n1 | inconclusive: 12.6 µM [cytotoxic, partial curve] | 
CC(Nc1ncnc2c1cnn2-c1cccc(Cl)c1)c1ccccc1 (configuration not stated) | inconclusive: 35.5 µM [cytotoxic, single point] | 
CCOc1ccc(C2=C(C(C)=O)Sc3nnc(C)n3N2C(C)=O)cc1 | inconclusive: 12.6 µM [cytotoxic, partial curve] | 
Cc1ccccc1NC(=O)c1cc2ccccc2o1 | inconclusive: 35.5 µM [cytotoxic, single point] | 
COc1ccc(-c2csc3ncnc(Nc4cc(OC)cc(OC)c4)c23)cc1 | inconclusive: 6.31 µM [cytotoxic, single point] | 
Cc1ccc(-n2c(SCC(=O)c3ccccc3)nc3c([nH]c4ccccc43)c2=O)cc1 | inconclusive: 6.31 µM [cytotoxic, single point] | 
CCCOc1ccc(C(=O)Nc2ccc(NC(=O)c3ccccc3)c(C)c2)cc1 |  | inactive: -3.33%
Cn1nc(C(=O)N2CCN(c3ccc(F)cc3)CC2)c2c1-c1ccccc1SC2 | inconclusive: 35.5 µM [cytotoxic, single point] | 
COc1ccc(CNc2nc(SCc3ccccc3Cl)nc3ccccc23)cc1 | inconclusive: 6.31 µM [cytotoxic, partial curve] | 
CCN(CC)S(=O)(=O)c1ccc2c(c1)N(CC(=O)NCCCN1CCN(c3cc(Cl)ccc3C)CC1)C(=O)CO2 | inconclusive: 35.5 µM [cytotoxic, single point] | 
Oc1ccc(NCc2ccc(OCc3ccccc3)cc2)cc1 | inconclusive: 12.6 µM [cytotoxic, single point] | 
Cc1ccc(CSc2nc3ccncc3n2Cc2nc(-c3ccccc3C)oc2C)cc1 | active: 7.94 µM | 
CCC(CC)C(=O)Nc1cc(-c2nc3cccnc3s2)ccc1C | inconclusive: 12.6 µM [cytotoxic, partial curve] | 
CCS(=O)(=O)Nc1ccc(-c2cn3c(C)csc3n2)cc1 | inconclusive: 12.6 µM [cytotoxic, single point] | 
Cc1nn2c(=O)cc(COC(=O)c3ccc(NC(=O)COc4ccccc4F)cc3)nc2s1 |  | inactive: -0.612%
Cc1nc2c(c(C)nn2C(C)(C)C)c(C)c1CCC(=O)Nc1ccc(F)cc1 |  | inactive: -2.96%
COc1ccc(C)c2sc(N3CCN(C(=O)c4ccco4)CC3)nc12 |  | inactive: -8.71%
CCOc1ccc(CNC(=O)CSc2c3c(nc4ccc(Cl)cc24)CCCC3)cc1 |  | inactive: -2.3%
Cn1c(C(=O)NCc2cccc(Cl)c2)cc2oc3ccccc3c21 | inconclusive: 3.98 µM [cytotoxic, full curve, poor fit] | 
O=C(/C=C/c1ccco1)Nc1ccc(F)cc1 | inconclusive: 25.1 µM [cytotoxic, single point] | 

Structure (SMILES) | Potency | activity change, negative = cytotoxicity
COc1cc(C(=O)N(Cc2ccc(F)cc2)Cc2ccco2)cc(OC)c1OC |  | inactive: 1.41%
COc1ccc(-n2c(/C=C/c3cccc(C(F)(F)F)c3)nc3ccccc3c2=O)cc1Cl |  | inactive: -7.21%
CC(C)(CNC(=O)/C=C/c1ccc(F)cc1)CNC(=O)/C=C/c1ccc(F)cc1 | inconclusive: 15.8 µM [cytotoxic, single point] | 
CCOc1ccc(CN2CCc3nc(N4CCN(c5ncccn5)CC4)ncc3C2)cc1OC |  | inactive: 9.01%
COc1ccccc1N1CCN(C(CNC(=O)C(=O)NCc2cccnc2)c2cccnc2)CC1 (configuration not stated) | inconclusive: 31.6 µM [cytotoxic, single point] | 
CCOc1ccc2nc(SCc3cccc(C)c3)nc(C)c2c1 |  | inactive: 7.34%
COc1ccc(Nc2nc3ccc(Cl)cc3nc2-n2nc(C)cc2C)cc1 | inconclusive: 0.0079 µM [cytotoxic, full curve, poor fit] | 
Cc1nn(-c2nc3ccccc3[nH]2)c(N)c1-c1ccccc1 | inconclusive: 22.4 µM [cytotoxic, single point] | 
Cc1ccc(C)c(N2CCN(CCCNC(=O)Cn3c(-c4cccs4)cc4ccccc43)CC2)c1 | inconclusive: 35.5 µM [cytotoxic, single point] | 
COc1ccc(-c2cc(C(F)(F)F)nc(S(=O)(=O)CCCC(=O)Nc3ccccc3C(F)(F)F)n2)cc1OC |  | inactive: -14.6%
Cc1cc2c(cc1NC(=O)c1ccc(C(C)(C)C)cc1)n(C)c(=O)c(=O)n2C |  | inactive: -7.79%
O=C(CN1C(=O)COc2ccc(S(=O)(=O)N3CCCC3)cc21)N1CCN(c2ccccc2F)CC1 | inconclusive: 2.82 µM [cytotoxic, single point] | 
COC(=O)c1ccccc1NC(=O)Nc1cccc(OCc2cc(=O)n3cccc(C)c3n2)c1 |  | inactive: -2.11%
Cc1cccc(C)c1NC(=O)C1CCCN(S(=O)(=O)c2c(C)noc2/C=C/N(C)C)C1 (configuration not stated) | inconclusive: 2.82 µM [cytotoxic, partial curve] | 
O=C(Nc1ccc(NC(=O)c2ccco2)nc1)c1cccnc1 | active: 12.6 µM | 
Cc1cccc(OCC(=O)Nc2c(C)ccc3nsnc23)c1C | inconclusive: 31.6 µM [cytotoxic, single point] | 
CCOc1ccc(-c2nc(CSCC(=O)N3CCN(c4cccc(C(F)(F)F)c4)CC3)c(C)o2)cc1 |  | inactive: 1.29%
COc1ccccc1CNS(=O)(=O)c1cc(C(=O)Nc2cccc(C(F)(F)F)c2)ccc1F |  | inactive: 41.8%
Cc1ccc(Cl)cc1N1CCN(C(=O)c2cnc(N3CCOCC3)c3ccccc23)CC1 | inconclusive: 3.98 µM [cytotoxic, single point] | 
CCOC(=O)c1ccccc1NC(=O)N1CCc2c(sc(C)c2CC)C1c1ccccc1 (configuration not stated) |  | inactive: -4.18%
CNC(=O)c1cc2c(n(-c3ccc(C)cc3)c1=O)CC(C)(C)CC2=O |  | inactive: 5.21%
COc1cc(NC(=O)CN(C)S(=O)(=O)c2ccc3[nH]c4c(c3c2)CCCC4)cc(OC)c1OC |  | inactive: 2.16%
CCOC(=O)N1CCc2c(sc(NCc3ccc(OCC)cc3)c2C(=O)Nc2ccc(OC)cc2OC)C1 |  | inactive: -3.58%
COc1ccc(N2Cc3cccc(C(=O)Nc4ccc(C(C)C)cc4)c3C2=O)cc1 | inconclusive: 3.98 µM [cytotoxic, partial curve] | 
